The campaign covered roughly 310,000 compounds. About 2,200 (0.71%) showed an effect of 50% or more. The effect is printed as a negative number. The list shows a part of the results.
Molecular target: human ether-à-go-go-related gene (hERG) potassium channel (human, UniProt Q12809)
Test: primary screen, population patch clamp on CHO cells stably expressing hERG

human ether-à-go-go-related gene (hERG) potassium channel, sequence (Q12809 whole entry, looked up): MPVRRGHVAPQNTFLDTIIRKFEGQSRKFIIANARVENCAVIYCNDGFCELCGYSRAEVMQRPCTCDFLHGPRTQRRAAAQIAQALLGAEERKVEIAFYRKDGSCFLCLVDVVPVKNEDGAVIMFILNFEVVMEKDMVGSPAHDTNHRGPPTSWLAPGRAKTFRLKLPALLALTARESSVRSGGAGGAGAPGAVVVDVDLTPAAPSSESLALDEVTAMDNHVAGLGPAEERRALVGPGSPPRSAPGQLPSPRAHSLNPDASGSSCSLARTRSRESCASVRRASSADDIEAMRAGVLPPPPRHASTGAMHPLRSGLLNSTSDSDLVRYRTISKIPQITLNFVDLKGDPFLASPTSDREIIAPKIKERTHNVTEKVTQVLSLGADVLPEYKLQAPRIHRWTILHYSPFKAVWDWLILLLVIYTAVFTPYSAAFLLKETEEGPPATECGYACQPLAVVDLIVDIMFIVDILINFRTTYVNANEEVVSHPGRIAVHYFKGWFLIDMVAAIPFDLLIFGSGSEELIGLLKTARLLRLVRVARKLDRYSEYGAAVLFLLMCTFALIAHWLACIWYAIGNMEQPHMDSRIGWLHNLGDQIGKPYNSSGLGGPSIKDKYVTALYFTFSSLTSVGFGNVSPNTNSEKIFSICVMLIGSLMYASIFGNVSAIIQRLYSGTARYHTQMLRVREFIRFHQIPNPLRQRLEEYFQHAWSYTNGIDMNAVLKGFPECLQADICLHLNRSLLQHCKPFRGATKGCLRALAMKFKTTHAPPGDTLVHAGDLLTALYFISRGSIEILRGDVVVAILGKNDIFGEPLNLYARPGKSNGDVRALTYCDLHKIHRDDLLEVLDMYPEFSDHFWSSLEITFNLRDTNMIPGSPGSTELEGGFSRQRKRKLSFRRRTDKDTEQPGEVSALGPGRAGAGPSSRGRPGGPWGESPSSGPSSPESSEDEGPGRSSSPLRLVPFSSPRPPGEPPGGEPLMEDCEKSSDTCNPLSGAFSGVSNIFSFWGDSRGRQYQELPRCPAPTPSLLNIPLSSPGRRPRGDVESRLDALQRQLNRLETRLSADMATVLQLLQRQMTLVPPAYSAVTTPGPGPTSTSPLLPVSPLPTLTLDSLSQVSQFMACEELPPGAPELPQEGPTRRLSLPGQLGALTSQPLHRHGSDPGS

SMILES	hERG current change (%, negative = inhibition) at 1uM [%]
CCOC(=O)/C(=N/Nc1ccc(OC)cc1)N1CCCc2ccccc21	8.74
COc1cc(OC)nc(NC(=O)CCl)n1	-5.03
COc1ccc(-n2c(Cc3cccn3C)nnc2SCC(=O)Nc2nccs2)cc1	-4.49
O=C(C1=C(O)C(=O)N(CCN2CCOCC2)C1c1ccc(Cl)cc1)c1cc2ccccc2o1 (stereo not drawn)	13
O=C(/C=C(\O)c1ccccc1)C(=O)NNC(=O)c1ccccc1	14.9
O=[N+]([O-])c1ccc2ncnc(Nc3ccc4c(c3)OCCO4)c2c1	11.8
CN(C(=O)COC(=O)c1ccc(S(=O)(=O)N2CCOCC2)cc1)C1CCCCC1	1.61
CCCCCCCC[n+]1cccc2c3ccccc3ccc21.[I-]	-92
O=C(CF)NC(NC(=S)Nc1ccccc1O)C(Cl)(Cl)Cl (stereo not drawn)	16.9
CC(C)OC(=O)/C(=C/c1ccc2c(c1)c1ccccc1n2C)NC(=O)c1ccccc1	1.89
CCC(C)NC(=O)c1cc(CC(C)C)on1 (stereo not drawn)	14.6
CCc1ccccc1NC(=S)NNC(=O)c1ccccc1Cl	18
CC(C)OCCCn1c(=N)c(S(=O)(=O)c2ccccc2)cc2c(=O)n3ccccc3nc21	-0.118
CC1CCCC(C)N1/N=C/c1cccc([N+](=O)[O-])c1 (stereo not drawn)	15.2
CN1CCN(c2ccc(S(=O)(=O)N3CCCCC3)cc2NC(=O)/C=C/c2ccc(OC(F)F)cc2)CC1	22.7
CC(=O)Nc1cc(NC(C)=O)cc(C(=O)OCC(=O)c2ccc3c(c2)NC(=O)CO3)c1	2.38
CCOC(=O)C1(Cc2ccccc2)CCN(Cc2cnn(-c3ccccc3)c2)CC1	-33
N=c1c(C(=O)NCCN2CCOCC2)cc2c(=O)n3ccccc3nc2n1CCCN1CCOCC1	13.2
CN1CCc2ccccc2Cc2[nH]c3ccccc3c2CC1	1.09
COc1cc(C(=O)OC(C)CN2C(C)CCCC2C)cc(OC)c1OC.Cl (stereo not drawn)	-2.99
CCCCN(CC)CCCNC(=O)c1cn(-c2ccc(OC)cc2)c(=O)c2ccccc12	-7.85

SMILES	hERG current change (%, negative = inhibition) at 1uM [%]
Cc1nn(CCC(=O)O)c2nc(-c3cccnc3)cc(C(F)(F)F)c12.Cl	6.53
CC(C)C(NC(=O)C1CCCCC1)C(=O)Nc1ccccn1 (stereo not drawn)	8.74
Cc1cccc(OCC(=O)OCC(=O)c2c(N)n(C)c(=O)n(C)c2=O)c1	-6.69
CCc1nc2ccccc2c(C(=O)OCC(=O)NC(=O)c2cccn2C)c1C	10.5
CCOC(=O)N1CCN(C(=O)CCc2cc(OC)c(OC)c(OC)c2)CC1	6.56
O=C(CCc1ccc(S(=O)(=O)N2CCOCC2)cc1)OCc1nc2ccccc2s1	8.85
CC(C)N=C(NC#N)SCc1ccccc1F	1.31
CCN1CCN(c2cc(C)c3cc(NC(=O)c4ccc(OC)c(OC)c4)ccc3n2)CC1	-4.89
CCOC(=O)CN(C(=O)Cn1nnc2ccccc21)C(C(=O)NCCOC)c1ccccc1C (stereo not drawn)	8.01
Cc1ccc(NC(=O)c2nnn(-c3cccc(C(F)(F)F)c3)c2N)cc1	-4.01
COc1ccc2[nH]c(C)c(CCNC(=S)Nc3cc(C)ccc3C)c2c1	12.6
COc1ccc(C2=COc3ccccc3C(=O)N2)cc1	4.38
N#Cc1ccc(C(=O)N2CCN(C(=O)C3CCCO3)CC2)cc1 (stereo not drawn)	6.79
c1ccc2sc(NC3=NCN(C4CCCCCC4)CN3)nc2c1	-5.32
Cc1ccc(S(=O)(=O)c2cc3c(=O)n4ccccc4nc3n(CCCN3CCOCC3)c2=N)cc1C	2.37
O=C(c1cc(COc2ccc(F)cc2F)on1)N1CC[C@@H]2CCCC[C@H]2C1	3.35
Cc1cc(C(=O)N/N=C/C=C/c2ccc([N+](=O)[O-])cc2)n[nH]1	-0.637
COC(=O)c1nn(-c2ccc(F)cc2)ccc1=O	5.3
CC(=O)c1ccc(NC(=O)NNS(=O)(=O)c2ccc(F)cc2)cc1	13.6
CCC1(c2ccccc2)NC(=O)N(CC(=O)Nc2cccc(S(=O)(=O)N3CCCC3)c2)C1=O (stereo not drawn)	3.13
O=C(N/N=C/c1ccc([N+](=O)[O-])o1)c1ccc(NS(=O)(=O)c2cccs2)cc1	6.96

From article PMC4336329 (PLoS ONE, 2015)
